In a collection of fitness landscapes (doi:10.1016/j.celrep.2020.107928):
Whole data set: some 81,000 sequences, median “one-hybrid fitness for binding parS DNA” near -0.17, cut for the highest 2% near 0.51. Some of the results follow.

B1: Caulobacter ParB omega fusion; a variant is named by its letters at X, in order, B8GW30 (parent)
chain: MESVVVGEPGMSEGRRGLGRGLSALLGEVDAAPAQAPGEQLGGSREAPIEILQRNPDQPRRTFREEDLEDLSNSIREKGVLQPILVRPSPDTAGEYQIVAGERAWRAAQRAGLKTVPIMVRELDDLAVLEIGIIENVQRADLNVLEEALSYKVLMEKFERTQENIAQTIGKSXSHVANXMRLLXLPDEVQSYLVSGELTAXHARAIAAAADPVALAKQIIEGGLSVRETEALARKAPNLSAGKSKGGRPPRVKDTDTQALESDLSSVLGLDVSIDHRGSTGTLTITYATLEQLDDLCNRLTRGI

Variants of: B1
Experiment: one-hybrid fitness for binding parS DNA (scaled: cognate 1, non-cognate 0); higher = stronger binding
Conditions: with parS DNA site
In short: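 Caulobacter ParB libraries with four specificity codons randomised were screened by bacterial one-hybrid selection in the E. coli USO strain, using a HIS3 reporter whose site lies 19 bp from the promoter. Selection ran for 48 hours at 37°C on M9 lacking histidine, with 0.1 mM IPTG and 5 mM 3-AT. Plasmids were Illumina-sequenced before and after selection, three replicate libraries were pooled, and variants with under 10 reads were dropped. Fitness is the log change in each variant's read ratio to wild type, rescaled against the cognate and non-cognate sites.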

Variant | one-hybrid fitness for binding parS DNA
QRQW | ≤ 0.2
VRST | ≤ 0.2
DMPG | ≤ 0.2
HRDH | ≤ 0.2
PHIW | ≤ 0.2
LYRP | ≤ 0.2
QSRF | ≤ 0.2
RRMG | 0.806
RNFY | ≤ 0.2
EGWP | 0.264
FLNG | ≤ 0.2
CLCL | ≤ 0.2
KKRK | ≤ 0.2
QLMS | ≤ 0.2
HNQL | ≤ 0.2
AWAG | ≤ 0.2
CGSL | ≤ 0.2
NSFS | ≤ 0.2
GCSH | ≤ 0.2
AVVC | ≤ 0.2
TPNT | ≤ 0.2
VVAT | ≤ 0.2
FNAG | ≤ 0.2
QQYC | ≤ 0.2
VWEP | ≤ 0.2
RPCE | ≤ 0.2

Variant | one-hybrid fitness for binding parS DNA
QTDC | ≤ 0.2
PYLK | ≤ 0.2
GSQG | ≤ 0.2
PLMR | ≤ 0.2
REET | ≤ 0.2
RVTD | ≤ 0.2
VIEK | ≤ 0.2
YGFS | ≤ 0.2
DGAV | ≤ 0.2
GKLD | ≤ 0.2
TSRL | ≤ 0.2
RACV | ≤ 0.2
WISG | ≤ 0.2
LEQC | ≤ 0.2
DHMV | ≤ 0.2
NQQR | ≤ 0.2
RDSN | ≤ 0.2
MHLE | ≤ 0.2
EACT | ≤ 0.2
GLHS | ≤ 0.2
QELE | ≤ 0.2
VTHR | ≤ 0.2
CMNE | ≤ 0.2
GMLV | ≤ 0.2
RACQ | ≤ 0.2
HWGV | ≤ 0.2

Variant | one-hybrid fitness for binding parS DNA
YMPY | ≤ 0.2
HPPV | ≤ 0.2
RQLF | 0.241
TLFK | ≤ 0.2
YMDV | ≤ 0.2
WLNR | ≤ 0.2
HTKR | ≤ 0.2
NGKV | ≤ 0.2
ATVF | ≤ 0.2
SVGN | ≤ 0.2
TPLR | ≤ 0.2
PQTL | ≤ 0.2
EANT | ≤ 0.2
WCYC | ≤ 0.2
NTLP | ≤ 0.2
VNER | ≤ 0.2
NVMG | ≤ 0.2
QQCF | ≤ 0.2
AKAI | ≤ 0.2
NSDA | ≤ 0.2
HYGR | ≤ 0.2
QDTM | ≤ 0.2
SGIK | ≤ 0.2
VFGS | ≤ 0.2
RNHL | ≤ 0.2
GITD | ≤ 0.2

Variant | one-hybrid fitness for binding parS DNA
FIHR | ≤ 0.2
DDHK | ≤ 0.2
EAPR | ≤ 0.2
CTHC | ≤ 0.2
VSAR | ≤ 0.2
QDGT | ≤ 0.2
NGKS | ≤ 0.2
RCAK | ≤ 0.2
RFVG | 0.77
TICT | ≤ 0.2
EALH | ≤ 0.2
HFVC | ≤ 0.2
QIQT | ≤ 0.2
RVWH | ≤ 0.2
HWEG | ≤ 0.2
SQAM | ≤ 0.2
QGHS | ≤ 0.2
PSYG | ≤ 0.2
TVVI | ≤ 0.2
RTYQ | ≤ 0.2
SNKC | ≤ 0.2
LEDR | ≤ 0.2
TIQE | ≤ 0.2
WFTT | ≤ 0.2
MAYM | ≤ 0.2
HTAC | ≤ 0.2

Variant | one-hybrid fitness for binding parS DNA
TGYW | ≤ 0.2
RQLL | ≤ 0.2
KHAT | ≤ 0.2
VPAG | ≤ 0.2
HKKM | ≤ 0.2
KALE | ≤ 0.2
GDMR | ≤ 0.2
QEFY | ≤ 0.2
ESCS | ≤ 0.2
DHRL | ≤ 0.2
HYGL | ≤ 0.2
AWWR | ≤ 0.2
LHDR | ≤ 0.2
VRII | ≤ 0.2
QRGQ | ≤ 0.2
KIFC | ≤ 0.2
RKGN | 0.429
RLFC | 0.948
DFRG | ≤ 0.2
QMPT | ≤ 0.2
AHLL | ≤ 0.2
GNRV | ≤ 0.2
TREG | ≤ 0.2
GCPL | ≤ 0.2
QVGP | ≤ 0.2
TDFC | ≤ 0.2

Variant | one-hybrid fitness for binding parS DNA
ALEY | ≤ 0.2
VPWY | ≤ 0.2
LSNW | ≤ 0.2
KMLS | ≤ 0.2
QKSY | ≤ 0.2
EKQN | ≤ 0.2
YIDT | ≤ 0.2
LKTT | ≤ 0.2
IRQL | ≤ 0.2
YDRI | ≤ 0.2
PHTR | ≤ 0.2
DPRS | ≤ 0.2
FYLS | ≤ 0.2
HIPY | ≤ 0.2
WWAG | ≤ 0.2
EAPI | ≤ 0.2
QIEV | ≤ 0.2
VYGG | ≤ 0.2
SRFW | ≤ 0.2
CAVV | ≤ 0.2
CWAG | ≤ 0.2
IQLR | ≤ 0.2
KDCY | ≤ 0.2
